# Reference: PubChem BioAssay (Tox21)
# “And” between values parts separate entries of the source, which are not always exact repeats. Equal values may be shown once. Inconclusive means that the source gave no clear call. Such entries were picked first, then a sample of the others. No potency is given beside an inconclusive call; the fits are too rough. The source made the active and inactive calls. The call rests on the fitted dose curve; in most records, active means well fitted curve in the direction sought with a large enough effect in the repeat runs; inconclusive means weak or mixed curves; inactive means no such curve, though single readings can be large; an effect the other way counts as inactive or inconclusive.
# Tests used:
# [1] = qHTS assay for identifying genotoxic compounds that show differential cytotoxicity against isogenic chicken DT40 cell lines with known DNA damage response pathways - wild type cell line (AID 743012); conditions: DT40 wild type chicken cells viability, CellTiter-Glo, 40 h; activity change, negative = cytotoxicity: at 68.4 µM (top of the series) unless noted; further: nearly all actives have a fitted effect of over 60% in size
# How it was run: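 Cells (DT40 wild type, 300/well) are treated with DMSO-dissolved compounds after a ~0.5 h pre-incubation and kept 40 h at 37 C/5% CO2. Viability is then measured by CellTiter-Glo luminescence following 30 min at room temperature.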
# [2] = qHTS assay for identifying genotoxic compounds that show differential cytotoxicity against isogenic chicken DT40 cell lines with known DNA damage response pathways - Rev3 mutant cell line (AID 743014); conditions: chicken DT40 Rev3-/- viability, CellTiter-Glo, 40 h; series mostly up to 68.4 µM; further: nearly all actives have a fitted effect of over 55% in size
# [3] = qHTS assay for identifying genotoxic compounds that show differential cytotoxicity against isogenic chicken DT40 cell lines with known DNA damage response pathways - Rad54/Ku70 mutant cell line (AID 743015); conditions: DT40 Rad54/Ku70 mutant viability, CellTiter-Glo, 40 h; activity change, negative = cytotoxicity: at 66.8 µM (top of the series); further: nearly all actives have a fitted effect of over 60% in size
# Potency means the concentration at half of the fitted maximal effect; tags describe the fitted curve by direction and shape.
SMILES,Potency [1],Potency [2],Potency [3]
CC(C)=CCCC(C)C=O (stereo not drawn),"inconclusive [cytotoxic, single point]","inconclusive [cytotoxic, full curve, poor fit]",–
Cc1ccc(C(=O)C(C)CN2CCCCC2)cc1 (stereo not drawn),active: 23.7 µM and active: 26.6 µM,"inconclusive [cytotoxic, single point]","inconclusive [cytotoxic, single point]"
Cc1ncc([N+](=O)[O-])n1CCO,"inconclusive [cytotoxic, single point]","inconclusive [cytotoxic, single point]",–
Cc1cc2c(s1)Nc1ccccc1N=C2N1CCN(C)CC1,"inconclusive [cytotoxic, partial curve]","inconclusive [cytotoxic, partial curve, poor fit]","inconclusive [cytotoxic, single point]"
O=C(Cl)c1ccc(C(=O)Cl)cc1,"inconclusive [cytotoxic, partial curve]","inconclusive [cytotoxic, single point]","inconclusive [cytotoxic, single point]"
O=P(c1ccccc1)(c1ccccc1)c1ccccc1,"inconclusive [cytotoxic, single point]",active: 61.1 µM,–
O=S(=O)(O)c1cc(I)c(O)c2ncccc12,"inconclusive [cytotoxic, single point]","inconclusive [cytotoxic, partial curve, poor fit]","inconclusive [cytotoxic, partial curve]"
